# The list shows a part of the results.
# How the values were obtained:
# Assay in all cases: glycan array binding signal (z-score within array); higher = stronger binding
# Settings in all cases: glycan notation: IUPAC condensed, linker removed
# [1] = target: GlcNAc(b1-3)Gal(b1-4)GlcNAc(b1-3)Gal(b1-4)GlcNAc(b1-2)Man(a1-3)[GlcNAc(b1-3)Gal(b1-4)GlcNAc(b1-3)Gal(b1-4)GlcNAc(b1-2)Man(a1-6)]Man(b1-4)GlcNAc(b1-4)GlcNAc
# Method in brief: (§1)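 Glycan array data were curated from 3228 arrays in the Consortium for Functional Glycomics database and kept only where the protein sequence was available. Glycan names were converted to IUPAC-condensed notation, and columns mapping to the same glycan were averaged. The binding signal is a within-array Z-score, averaged across arrays of the same protein sequence at different concentrations or buffers and across linkers. Negative Z-scores can be read as non-binding.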
# [2] = target: GlcNAc(b1-3)Gal(b1-4)GlcNAc(b1-3)Gal(b1-4)GlcNAc(b1-2)Man(a1-3)[GlcNAc(b1-3)Gal(b1-4)GlcNAc(b1-3)Gal(b1-4)GlcNAc(b1-2)Man(a1-6)]Man(b1-4)GlcNAc(b1-4)[Fuc(a1-6)]GlcNAc
# Method in brief: as §1
# [3] = target: GlcNAc(b1-3)Gal(b1-4)GlcNAc(b1-3)Gal(b1-4)GlcNAc(b1-2)[GlcNAc(b1-3)Gal(b1-4)GlcNAc(b1-3)Gal(b1-4)GlcNAc(b1-6)]Man(a1-6)[GlcNAc(b1-3)Gal(b1-4)GlcNAc(b1-3)Gal(b1-4)GlcNAc(b1-2)Man(a1-3)]Man(b1-4)GlcNAc(b1-4)[Fuc(a1-6)]GlcNAc
# Method in brief: as §1
# [4] = target: GlcNAc(b1-3)Gal(b1-4)GlcNAc(b1-3)Gal(b1-4)GlcNAc(b1-3)Gal(b1-4)GlcNAc(b1-2)Man(a1-3)[GlcNAc(b1-3)Gal(b1-4)GlcNAc(b1-3)Gal(b1-4)GlcNAc(b1-3)Gal(b1-4)GlcNAc(b1-2)Man(a1-6)]Man(b1-4)GlcNAc(b1-4)GlcNAc
# Method in brief: as §1
# [5] = target: GlcNAc(b1-3)Gal(b1-4)GlcNAc(b1-3)Gal(b1-4)GlcNAc(b1-3)Gal(b1-4)GlcNAc(b1-2)Man(a1-3)[GlcNAc(b1-3)Gal(b1-4)GlcNAc(b1-3)Gal(b1-4)GlcNAc(b1-3)Gal(b1-4)GlcNAc(b1-2)Man(a1-6)]Man(b1-4)GlcNAc(b1-4)[Fuc(a1-6)]GlcNAc
# Method in brief: as §1
# [6] = target: GlcNAc(b1-3)Gal(b1-4)GlcNAc(b1-3)Gal(b1-4)GlcNAc(b1-3)Gal(b1-4)GlcNAc(b1-2)[GlcNAc(b1-3)Gal(b1-4)GlcNAc(b1-3)Gal(b1-4)GlcNAc(b1-3)Gal(b1-4)GlcNAc(b1-6)]Man(a1-6)[GlcNAc(b1-3)Gal(b1-4)GlcNAc(b1-3)Gal(b1-4)GlcNAc(b1-3)Gal(b1-4)GlcNAc(b1-2)Man(a1-3)]Man(b1-4)GlcNAc(b1-4)[Fuc(a1-6)]GlcNAc
# Method in brief: as §1
# [7] = target: GlcNAc(b1-3)Gal(b1-4)GlcNAc(b1-3)Gal(b1-4)GlcNAc(b1-3)Gal(b1-4)GlcNAc(b1-3)Gal(b1-4)GlcNAc(b1-2)Man(a1-3)[GlcNAc(b1-3)Gal(b1-4)GlcNAc(b1-3)Gal(b1-4)GlcNAc(b1-3)Gal(b1-4)GlcNAc(b1-3)Gal(b1-4)GlcNAc(b1-2)Man(a1-6)]Man(b1-4)GlcNAc(b1-4)GlcNAc
# Method in brief: as §1
# [8] = target: GlcNAc(b1-3)Gal(b1-4)GlcNAc(b1-3)Gal(b1-4)GlcNAc(b1-3)Gal(b1-4)GlcNAc(b1-3)Gal(b1-4)GlcNAc(b1-2)Man(a1-3)[GlcNAc(b1-3)Gal(b1-4)GlcNAc(b1-3)Gal(b1-4)GlcNAc(b1-3)Gal(b1-4)GlcNAc(b1-3)Gal(b1-4)GlcNAc(b1-2)Man(a1-6)]Man(b1-4)GlcNAc(b1-4)[Fuc(a1-6)]GlcNAc
# Method in brief: as §1
# [9] = target: GlcNAc(b1-3)Gal(b1-4)GlcNAc(b1-3)Gal(b1-4)GlcNAc(b1-3)Gal(b1-4)GlcNAc(b1-3)Gal(b1-4)GlcNAc(b1-2)[GlcNAc(b1-3)Gal(b1-4)GlcNAc(b1-3)Gal(b1-4)GlcNAc(b1-3)Gal(b1-4)GlcNAc(b1-3)Gal(b1-4)GlcNAc(b1-6)]Man(a1-6)[GlcNAc(b1-3)Gal(b1-4)GlcNAc(b1-3)Gal(b1-4)GlcNAc(b1-3)Gal(b1-4)GlcNAc(b1-3)Gal(b1-4)GlcNAc(b1-2)Man(a1-3)]Man(b1-4)GlcNAc(b1-4)[Fuc(a1-6)]GlcNAc
# Method in brief: as §1
# [10] = target: GlcNAc(b1-3)Gal(b1-4)GlcNAc(b1-3)Gal(b1-4)GlcNAc(b1-3)GalNAc
# Method in brief: as §1
# [11] = target: GlcNAc(b1-3)Gal(b1-4)GlcNAc(b1-3)GalNAc
# Method in brief: as §1
# [12] = target: GlcNAc(b1-3)Gal(b1-4)GlcNAc(b1-3)[GlcNAc(b1-3)Gal(b1-4)GlcNAc(b1-3)]GalNAc
# Method in brief: as §1
# [13] = target: GlcNAc(b1-3)Gal(b1-4)GlcNAc(b1-6)[Gal(b1-3)]GalNAc
# Method in brief: as §1
# [14] = target: GlcNAc(b1-3)Gal(b1-4)GlcNAc(b1-6)[GlcNAc(b1-3)Gal(b1-3)]GalNAc
# Method in brief: as §1
# [15] = target: GlcNAc(b1-3)Gal(b1-4)GlcNAc(b1-6)[GlcNAc(b1-3)]Gal(b1-4)GlcNAc
# Method in brief: as §1
# GlcNAc(b1-3)GalNAc = target: GlcNAc(b1-3)GalNAc
# Method in brief: as §1
# GlcNAc(b1-3)Man = target: GlcNAc(b1-3)Man
# Method in brief: as §1
# [16] = target: GlcNAc(b1-3)[GlcNAc(b1-4)][GlcNAc(b1-6)]GlcNAc
# Method in brief: as §1
# [17] = target: GlcNAc(b1-3)[GlcNAc(b1-6)]Gal(b1-4)GlcNAc
# Method in brief: as §1
# [18] = target: GlcNAc(b1-3)[GlcNAc(b1-6)]GalNAc
# Method in brief: as §1
# [19] = target: GlcNAc(b1-4)Gal(b1-4)GlcNAc
# Method in brief: as §1
# GlcNAc(b1-4)GlcNAc = target: GlcNAc(b1-4)GlcNAc
# Method in brief: as §1
# [20] = target: GlcNAc(b1-4)GlcNAc(b1-4)GlcNAc
# Method in brief: as §1
binder,measurement,setting,value
"InvD YPIII (Yersinia pseudotuberculosis), B1JSC0 (protein) MIKYFSFFKKPEPIVGILPNRQSHHILPTHIRRVAWGTLLLQLFIPLSVSFSPAIAAMKASKADTMVSYSSTEPYVLGSGETVAMVAKKYGITVDELKKINIYRTFSRPFTALTTGDEIDIPRKASPFSVDNNKDNRLSVENTLAGHAVAGATALSNGDVAKSGERMVRSAASNEFNNSAQQWLSQFGTARVQLNINDDFHLDGSAADVLIPLYDNEKSILFTQLGARNKDSRNTVNMGAGVRTFQGNWMYGANTFFDNDLTGKNRRIGVGAEAWTDYLKLSANNYFGITDWHQSRDFIDYNERPANGYDLRAEAYLPSYPQLGGKAMYEKYRGDDVALFGKDNRQKNPHAITAGVNYTPIPLVTIGAEHRAGKGGQNDSNINFQLNYRLGETWQSHIDPSAVAASRTLAGSRYDLVERNNHIVLDYQKQNLVRLSLPDSLAGDPFSQLSVTAQVTATHGLERIDWQSAELMAAGGVLKQTSKNGLEITLPEYQMNRTGGNSYILNAIAYDTQGNASSQASMLITVNAQKINIANSTLVAVPINIEANNSDTSVVTLTLKDDNNIPVTGQDVTFLSPLGTLSAMTDSGNGVYTATLTAGTVSGTTAVSSNINGSALDMTPATVTLNGNSGELSITHSMLVAAPVNIEANGSDTSVVTLTLRDSNNNPVTGQTVTFAGTLGTLGAVTEGSSGVYTATLTAGIMVGTSSITASVNSTALGVTPATVTLNGDSGNLSTTNSTLVAAPVNIEANSSDTSVVTLTLRDNNNNPVTGQTVVFTSTLGTLGNVTEQASGVYTATLTAGTVSGVASLSVSVGGNALGVTPATVTLNGDSGNLSTTNSTLVAAPVNIEANSSDTSVVTLTLRDNNNNPVTGQTVNFAGTLGTLGTVSEGSSGVYTTTLTAGTVAGVASLSVNVGGNALGVTPATVTLNGNSGNLSATNSTLVAAPVNIEANSSDTSVVTLTLRDNNNNPVTGQTVAFTSTLGTLGNVTEQASGVYTATLTAGTVSGVASLSVSVNSNALGVTPATVTLNGDSGNLSTTNSTLVAAPVNIEANSSDTSVVTLTLRDNNNNPVTGQTVAFTSTLGTLGNVTEQASGLYTATLTAGTVSGVASLSVNVGGNALGVTPATVTLNGDSGNLSATNSTLVAAPVNIEANSSDTSVVTLTLRDNNNNPVTGQTVAFTSTLGTLGNVTEQASGLYTATLTAGTVSGVASLSVNVGGTALGVTPATVTLNGDSGNLSTTNSTLVAAPVNIEANSSDTSVVTLTLRDNNNNPVTGQTVAFTSTLGTLGNVTEQASGLYTATLTAGTVSGVASLSVSVNSTALGVTPATVTLNGDSGNLSTTNSTLVAAPVNIEANSSDTSVVTLTLRDNNNNPVTGQTVAFTSTLGTLGNVTEQASGVYTATLTAGTVAGVASLSVNVGGNALGVTPATVTLNGDSGNLSTTNSTLVAAPVNIEANSSDTSVVTLTLRDNNNNPVTGQTVAFTSTLGTLGNVTEQASGVYTATLTAGTVSGVASLSVSVGSSALGVTPATVTLNGDSGNLSTTNSTLVAAPVNIEANNSDTSVVTLTLRDNNNNPVTGQTVAFTSTLGTLGNVTEQASGVYTATLTAGTVSGVASLSVSVNSNALGVTPATVTLNGDSGNLSTTNSTLVAAPVNIEANSSDTSVVTLTLRDNNNNPVTGQTVVFTSTLGTLGNVTEQASGLYTATLTAGTVSGVASLSVSVGGNALGVTGNITLAPGALDAARSILAVNKPSINADDRIGSTITFTAQDAQGNAITGLDIAFMTDLENSQIMTLVDHNDGTYTANINGTQTGIANIAVQSSGATIAGLAATMVTITPGAWNTTQATPVMTVALPITTCQSSSGVYKRYYIGIVTHELYDNYGNEISGILTYNLGAGRYTTVTSQNSSVSGSNGLTRRSNSPVSHFILTSDAYTSQAACYAERIANVNVTITVTAITDDFKTSAVNKVFILGTGSN",glycan array binding signal (z-score),[1],5.11
same,glycan array binding signal (z-score),[2],2.68
same,glycan array binding signal (z-score),[3],4.27
same,glycan array binding signal (z-score),[4],0.285
same,glycan array binding signal (z-score),[5],0.855
same,glycan array binding signal (z-score),[6],0.761
same,glycan array binding signal (z-score),[7],0.12
same,glycan array binding signal (z-score),[8],-0.117
same,glycan array binding signal (z-score),[9],-0.01
same,glycan array binding signal (z-score),[10],-0.229
same,glycan array binding signal (z-score),[11],-0.237
same,glycan array binding signal (z-score),[12],-0.349
same,glycan array binding signal (z-score),[13],-0.315
same,glycan array binding signal (z-score),[14],-0.162
same,glycan array binding signal (z-score),[15],-0.351
same,glycan array binding signal (z-score),GlcNAc(b1-3)GalNAc,-0.278
same,glycan array binding signal (z-score),GlcNAc(b1-3)Man,0.301
same,glycan array binding signal (z-score),[16],-0.169
same,glycan array binding signal (z-score),[17],-0.394
same,glycan array binding signal (z-score),[18],0.194
same,glycan array binding signal (z-score),[19],0.059
same,glycan array binding signal (z-score),GlcNAc(b1-4)GlcNAc,0.089
same,glycan array binding signal (z-score),[20],-0.324
